Laboratory results from the supplement of paper PMC12217912.
The other results are listed elsewhere or left out. The full chains were built here from the parent and the listed change. Inactive controls read about 0.05.

B1: TEV protease; numbered along this chain (parent)
chain: MGESLFKGPRDYNPISSSICHLTNESDGHTTSLYGIGFGPFIITNKHLFRRNNGTLVVQSLHGVFKVKDTTTLQQHLVDGRDMIIIRMPKDFPPFPQKLKFREPQREERICLVTTNFQTKSMSSMVSDTSCTFPSGDGIFWKHWIQTKDGQCGSPLVSTRDGFIVGIHSASNFTNTNNYFTSVPKNFMELLTNQEAQQWVSGWRLNADSVLWGGHKVFMVKPEEPFQPVKEATQL

Variants of: B1
Assay: raw area under fraction-flipped curve 0-4 h after induction (AUC4h, not background-subtracted), DNA-recorder readout of cleavage of the substrate (dimensionless); higher = more cleavage of the substrate by the protease variant
Conditions: temperature: 34 °C; time window: 0-4 h after rhamnose induction
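Note: Bxb1 expression induced with 0.2% (w/v) L-rhamnose at OD600 near 0.5, cultures sampled hourly, flipped fraction per protease–substrate barcode pair counted by paired-end Illumina sequencing.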

| Variant | area with substrate MNLYFQS | area with substrate PNLYFQS | area with substrate TNLYFQS | area with substrate WNLYFQS | area with substrate LNLYFQS | area with substrate SNLYFQS | area with substrate YNLYFQS | area with substrate NNLYFQS | area with substrate VNLYFQS |
| --- | --- | --- | --- | --- | --- | --- | --- | --- | --- |
| MGESLFKGPRDYNPISSSICHLTNESDGHTTSLYGIGFGPFIITNKHLFRRNNGTLVVQSLHGVFKVKDTTTLQDHLVDGRDMIIIRMPKDFPPFPQKLKFREPQREERICLVTTNFQTKSMSSMVSDTSCTFPSGDGIFWKHWIQTKDGQCGSPLVSTRDGFIVGIHSASNFTNTNNYFTSVPKNFMELLTNQEAQQWVSGWRLNADSVLWGGHKVFMVKPEEPFQPVKEATQL [Q75D] | 0.0696 | 0.0549 | 0.0595 | 0.057 | – | – | – | – | – |
| MGESLFKGPRDYNPISSSICHLTNESDGHTTSLYGIGFGPFIITNKHLFRRNNGTLVVQSLHGVFKVKDTTTLQQHLVDGRDMIIIRMPKDFPPFPQKLKFREPQREERICLVTTNFQTKSMSSMVSDTSCTFPSGDGIFWKHWIQTKDGQCGSPLVSTRDGFIVGIHSASNFTNTNNYFTSVPKFFMELLTNQEAQQWVSGWRLNADSVLWGGHKVFMVKPEEPFQPVKEATQL [N186F] | – | – | – | 0.0715 | 0.0572 | – | – | – | – |
| MGESLFKGPRDYNPISSSICHLTNESDGHTTSLYGIGFGPFIITNKHLFRRNNGTLVVQSLHGVFKVKDTTTLQQHLVDGRDMIIIRMPKDFPPFPQKLKFREPQREERICLVTTNFQTKSMSSMVSDTSCTFPSGDGIFWKHWIQTKDGQCGSPLVSTRDGFIVEIHSASNFTNTNNYFTSVPKNFMELLTNQEAQQWVSGWRLNADSVLWGGHKVFMVKPEEPFQPVKEATQL [G166E] | 0.0539 | 0.0503 | 0.0518 | 0.0502 | – | – | – | – | – |
| MGESLFKGPRDYNPISSSICHLTNESDGHTTSLYGICFGPFIITNKHLFRRNNGTLVVQSLHGVFKVKDTTTLQQHLVDGRDMIIIRMPKDFPPFPQKLKFREPQREERICLVTTNFQTKSMSSMVSDTSCTFPSGDGIFWKHWIQTKDGQCGSPLVSTRDGFIVGIHSASNFTNTNNYFTSVPKNFMELLTNQEAQQWVSGWRLNADSVLWGGHKVFMVKPEEPFQPVKEATQL [G37C] | – | – | – | 0.0621 | 0.087 | – | – | – | – |
| MGESLFKGPRDYNPISSSICHLTNESDGHTTSLYGIGFGPFIITNKHLFRRNNGTLVVQSLHGVFKVKDTTTLQQHLVDGRDMIIIRMPKDFPPFPQKLKFREPQREERICLVTTNFQTKSMSSMVSDTSCTFPSGDWIFWKHWIQTKDGQCGSPLVSTRDGFIVGIHSASNFTNTNNYFTSVPKNFMELLTNQEAQQWVSGWRLNADSVLWGGHKVFMVKPEEPFQPVKEATQL [G138W] | – | 0.0631 | – | – | 0.0629 | 0.0712 | 0.0564 | – | – |
| MGESLFKGPRDYNPISSSICHLTNESDGHTTSLYGIGFGPFIITNKHLFRRNNGTLVVQSLHGVFKVKDTTTLQQHLIDGRDMIIIRMPKDFPPFPQKLKFREPQREERICLVTTNFQTKSMSSMVSDTSCTFPSGDGIFWKHWIQTKDGQCGSPLVSTRDGFIVGIHSASNFTNTNNYFTSVPKNFMELLTNQEAQQWVSGWRLNADSVLWGGHKVFMVKPEEPFQPVKEATQL [V78I] | 0.0847 | 0.0624 | 0.0691 | 0.0563 | – | 0.057 | – | – | – |
| MGESLFKGPRDYNPISSSICHLTNESDGHTTSLYGIGFGPFIITNKHLFRRNNGTLVVQSLHGVFKVKDTTTLQQHLVDGRDMIAIRMPKDFPPFPQKLKFREPQREERICLVTTNFQTKSMSSMVSDTSCTFPSGDGIFWKHWIQTKDGQCGSPLVSTRDGFIVGIHSASNFTNTNNYFTSVPKNFMELLTNQEAQQWVSGWRLNADSVLWGGHKVFMVKPEEPFQPVKEATQL [I85A] | – | 0.0672 | – | 0.053 | – | – | – | 0.057 | – |
| MGESLFKGPRDYNPISSSICHLTNESDGHTTSLYGIGFGPFIITNKHLFRRNNGTLVVQSLHGVFKVKDTTTLQQHLVDGRDMIIIRMPKDFPPFPQKLKFREPQREERICLVTTNFQTKSMSSMVSDTSCTFPSGDGIFWKHWIQTKDGQCGSPLVSTRDGFIVGIHSASNFTNTNNYFTSVPKNFMEDLTNQEAQQWVSGWRLNADSVLWGGHKVFMVKPEEPFQPVKEATQL [L190D] | 0.0609 | – | 0.0639 | – | 0.0708 | 0.0682 | 0.0599 | – | 0.0548 |
| MGESLFKGPRDYNPISSSICHLTNESDGHTTSLYGIGFGPFIITNKHLFRRNNGTLVVQSLHGVFKVKDTTTLQQHLVDGRDMIIIRMPKDFPPFPQKLKFREPQREERICLVTTNFQTKSMSSMVSDTSCTFPSGDGIFWKHWIQTKDGQCGSPLVSTRDGFIVGIHSASNFTNTNNYFTSVPKNFMELLTNQEAQQWVSGWRLNADSVLWGGHKVFMVKPEEPVQPVKEATQL [F226V] | 0.0679 | 0.0604 | – | 0.0541 | 0.0698 | 0.0907 | – | – | – |
| MGESLFKGPRDYNPISSSICHLTNESDGHTTSLYGIGFGPFIITNKHLFRRNNGTLVVQSLHGVFKVKDTTTLQQHLVDGRDMIIIRMPKDFPPFPQKLKFREPQREERICLVTTNFQTKSMSSWVSDTSCTFPSGDGIFWKHWIQTKDGQCGSPLVSTRDGFIVGIHSASNFTNTNNYFTSVPKNFMELLTNQEAQQWVSGWRLNADSVLWGGHKVFMVKPEEPFQPVKEATQL [M125W] | – | – | – | – | – | 0.0567 | – | 0.0794 | – |
| MGESLFKGPRDYNPISSSICHLTNESDGHTTSLYGIGFGPFIITNKHLFRRNNGTLVVQSLHGVFKVKDTTTLQQHLVDGRDMIIIRMPKDKPPFPQKLKFREPQREERICLVTTNFQTKSMSSMVSDTSCTFPSGDGIFWKHWIQTKDGQCGSPLVSTRDGFIVGIHSASNFTNTNNYFTSVPKNFMELLTNQEAQQWVSGWRLNADSVLWGGHKVFMVKPEEPFQPVKEATQL [F92K] | – | – | – | 0.0346 | – | – | – | 0.0513 | – |
| MGESLFKGPRDYNPISSSICHLTNESDGHTTSLYGIGFGPFIITNKHLFRRNNGTLVVQSLHGVFKVKDTTTLQQHLVDGRDMIIIRMPKDFPPFPQKLKFREPQREERICLVTTNFQTKSMSSMVSDTSCTFPSGDGIFWKHWIQTKDGQCGSPLVSTRDGFIVGIHSASNFTNTNNYFTSVPKNFMELLTNQTAQQWVSGWRLNADSVLWGGHKVFMVKPEEPFQPVKEATQL [E195T] | – | – | – | 0.0502 | 0.0606 | 0.047 | – | – | – |
